Where “and” joins values, the source holds several entries; their conditions need not be identical. Equal entries are not always repeated. About 50,000 (12%) of roughly 420,000 compounds were called active. This list was built around the results that the source calls inconclusive (neither active nor inactive); the mix of calls is not that of the screen. Calls come from the whole dose curve; as a rule, active = well fitted inhibition curve with a large enough effect; inconclusive = small, poorly fitted or top-dose-only effect; inactive = flat fitted curve, though single readings scatter. Where the call is inconclusive, the potency comes from a doubtful curve fit.
assay: qHTS for Inhibitors of human tyrosyl-DNA phosphodiesterase 1 (TDP1): qHTS in cells in presence of CPT; conditions: chicken DT40 Tdp1-/-;hTDP1 cells + 20 nM CPT, ATP luminescence, 48 h; activity change, negative = growth inhibition: at 46.2 µM (top of the series); note: nearly all actives have a fitted effect of over 55% in size
Outline: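 Chicken DT40 Tdp1-/- cells stably complemented with human TDP1 were seeded at 400 cells/well in medium containing 20 nM camptothecin, exposed to pin-transferred compounds, and grown at 37 °C for at least 48 hr. Viability was read as ATP luminescence.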
% is set by controls: 0 for no effect and ±100 for the full control effect; potency is the fitted concentration of half-maximal effect; tags give direction and shape of the fitted curve.

SMILES	activity change, negative = growth inhibition	Potency
O=C(Nc1ccccc1)O/N=C/c1ccc(F)cc1	inactive: 4.51%	–
Cc1cc(Nc2ccccc2O)c2ccccc2n1	–	inconclusive: 29.1 µM [inhibitor, single point]
CC(C)CNc1ncnc2c1ncn2[C@H]1CN(Cc2ccc(Cl)cc2)C[C@@H](CO)O1	–	inconclusive: 25.9 µM [inhibitor, single point]
c1ccc(Cc2nnc3sc(-c4ccncc4)nn23)cc1	inactive: -15.5%	–
COc1ccc(-n2c(SCC(=O)Nc3ccccc3)nc(O)cc2=O)cc1	inactive: 5.82%	–
CC(=O)CSc1nc2c(c(=O)[nH]c(=O)n2C)n1CCCc1ccccc1	inactive: -0.072%	–
Nc1nc2c(nc(N3CCOCC3)n2COCCO)c(=O)[nH]1	–	inconclusive: 25.1 µM [inhibitor, single point]
Cc1nn(C(=O)c2cccc([N+](=O)[O-])c2)c(C)c1Cl	inactive: 35.5%	–
Cc1cc(C)cc(OCC(=O)NNC(=S)NC(=O)C2CC2)c1	–	active: 18.4 µM
O=[N+]([O-])c1ccc(S(=O)(=O)NCCS(=O)(=O)N2CCN(c3ccccc3)CC2)cc1	–	inconclusive: 23.1 µM [inhibitor, partial curve]
Cc1cc(C)cc(NC(=O)Cn2c(=O)n(Cc3ccc4c(c3)OCO4)c(=O)c3oc4ccccc4c32)c1	inconclusive: -32.5% [inhibitor]	–
Cc1ccc(SCC(=O)OCC(=O)NCCc2ccc(S(N)(=O)=O)cc2)c(C)c1	inactive: 8.79%	–
COc1ccc(-c2csc(NC3OC(=O)c4c3ccc(OC)c4OC)n2)cc1OC (stereo not given)	–	active: 9.2 µM
COCCCNC(=O)c1cccc2c(-c3ccc(O)c(OC)c3)coc12	–	inconclusive: 16.4 µM [inhibitor, single point]
O=C1C2C3C=CC(C3=C(c3ccccc3)c3ccccc3)C2C(=O)N1Cc1ccccc1 (stereo not given)	–	inconclusive: 18.4 µM [inhibitor, single point]
CCOc1ncnc2c1oc1nc(CC(C)C)c3c(c12)CC(C)(C)OC3	–	inconclusive: 35.5 µM [inhibitor, partial curve]
Cc1ccc(C)c(OCCCC(=O)Nc2ccccc2C(N)=O)c1	–	inconclusive: 29.1 µM [inhibitor, single point]
COc1ccc(NC(=O)C(c2ccc(OC)cc2)n2c(=O)c(-c3ccco3)nc3ccccc32)cc1 (stereo not given)	–	inconclusive: 13 µM [inhibitor, partial curve]
COc1ccc(CN2CCCC(C(=O)c3ccc(Cl)cc3)C2)cc1Cn1cncn1 (stereo not given)	–	inconclusive: 18.4 µM [inhibitor, single point]
COC(=O)CCC(=O)OC1(C)C(=O)C2=CN(CCc3c[nH]c4ccccc34)C(c3ccc(OC)cc3)=CC2=C(Br)C1=O (stereo not given)	–	inconclusive: 23.1 µM [inhibitor, single point]
CN(C(=O)c1cccc(NC(=O)Cc2ccc(NC(=O)C3CCN(C(=O)c4ccccc4)CC3)cc2)c1)C1CCC1	–	inconclusive: 25.9 µM [inhibitor, single point]
COC(=O)c1ccccc1NC(=O)C1CCCN(S(=O)(=O)c2ccc(F)cc2)C1 (stereo not given)	–	active: 14.6 µM

SMILES	activity change, negative = growth inhibition	Potency
Cc1cccc(C)c1NC(=O)COC(=O)c1ccccc1Nc1ccccc1	–	inconclusive: 29.1 µM [inhibitor, single point]
Cc1ccc(NC(=O)c2cc(=O)c3ccccc3o2)cc1S(=O)(=O)N1CCCCC1	–	inconclusive: 29.1 µM [inhibitor, single point]
Cc1ccccc1C(=O)N1CCN(c2ccc(NC(=S)NC(=O)c3ccco3)cc2)CC1	–	active: 23.1 µM
COc1cc(SC)ccc1C(=O)Nc1ccc(OCC(=O)N2CCOCC2)cc1	inactive: -7.19%	–
Cc1ccc(NC(=O)C(C)N2CCc3ccccc3C2)cc1 (stereo not given)	–	inconclusive: 18.4 µM [inhibitor, partial curve, poor fit]
Cc1ccc(-c2nc(CS(=O)(=O)CC(=O)NC3CCCCC3C)c(C)o2)cc1 (stereo not given)	–	inconclusive: 23.1 µM [inhibitor, single point]
COc1ccc(C(=O)Nc2c(-c3ccccc3)nc3ccccn23)c(OC)c1	–	inconclusive: 16.4 µM [inhibitor, partial curve]
Cc1ccc(NC(=O)c2cc(-c3ccco3)nc3ccccc23)cc1S(=O)(=O)N1CCOCC1	–	inconclusive: 20.6 µM [inhibitor, partial curve]
Cc1ncc(CN2CCCC(C(=O)Nc3ccc(-c4cccc(F)c4)cc3)C2)n1C (stereo not given)	–	active: 23.1 µM
COc1ccc(Cc2nc3ccc(C(=O)N4CCN(C)C(C)C4)cc3o2)cc1OC (stereo not given)	–	inconclusive: 18.4 µM [inhibitor, single point]
CCC(Sc1nc(C)cc(C)n1)C(=O)NC1=NN=C(c2ccc(C)cc2)CS1 (stereo not given)	–	inconclusive: 20.6 µM [inhibitor, single point]
COc1ccc(CN2C(=O)C(C)Nc3ncnc(N4CCN(c5ccccc5)CC4)c32)cc1 (stereo not given)	–	inconclusive: 29.1 µM [inhibitor, single point] and inconclusive: 13 µM [inhibitor, partial curve, poor fit]
CCCc1cc(=O)n2c([nH]c3ccccc32)c1C#N	–	inconclusive: 18.4 µM [inhibitor, single point]
Cc1cccc(CNC(=O)Cn2ccc3cc(S(=O)(=O)N4CCC(C)CC4)ccc32)c1	–	inconclusive: 13 µM [inhibitor, single point]
CN(C)CCNCCCNc1c2ccccc2nc2cccc([N+](=O)[O-])c12	–	active: 0.0517 µM
Brc1cccc(-c2nc3c4ccccc4ccn3c2Cc2ccsc2)c1	–	active: 25.9 µM
COc1ccc(-c2ccc(CCC(=O)O)n2-c2cc(Cl)ccc2O)cc1	–	inconclusive: 29.1 µM [inhibitor, single point]
O=C(Nc1nnc(CC(c2ccccc2)c2ccccc2)s1)c1ccco1	–	inconclusive: 9.2 µM [inhibitor, partial curve]
O=C(Cn1c(=O)n(Cc2nc(-c3ccccc3)no2)c(=O)c2cc3c(cc21)OCO3)Nc1cccc(C(F)(F)F)c1	–	active: 13 µM
Cn1c(=O)c2[nH]c(Nc3ccccc3)nc2n(C)c1=O	–	inconclusive: 20.6 µM [inhibitor, single point]
COc1ccc(CNC(C)C23CC4CC(CC(C4)C2)C3)c(OC)c1OC (stereo not given)	–	inconclusive: 16.4 µM [inhibitor, single point]
Cc1onc(-c2c(Cl)cccc2Cl)c1C(=O)N1CCCCC1	–	inconclusive: 8.2 µM [inhibitor, partial curve]

SMILES	activity change, negative = growth inhibition	Potency
O=C(Cn1c(=O)oc2ccccc21)N1CCN(S(=O)(=O)c2ccccc2)CC1	inactive: -2.22%	–
Cc1ccc(S(=O)(=O)N2CCOCC2)cc1NC(=O)COC(=O)CCOc1ccc(C(C)(C)C)cc1	inactive: -24.8%	–
N#CCSc1nc2cc(C(=O)N3CCC(C(N)=O)CC3)ccc2c2nc3ccccc3n12	–	inconclusive: 29.1 µM [inhibitor, single point]
Cc1ccc(-c2nn(-c3ccccc3)cc2C(=O)NCC(c2cccs2)N2CCOCC2)cc1 (stereo not given)	–	inconclusive: 29.1 µM [inhibitor, single point]
CCOC(=O)c1c(C)[nH]c(C)c1S(=O)(=O)N(C)CC(=O)Nc1cccc(C(F)(F)F)c1	–	inconclusive: 14.6 µM [inhibitor, single point]
CC(C)C[C@@H](N)c1nnc(SCC(=O)c2ccc(Cl)cc2)o1	–	inconclusive: 13 µM [inhibitor, partial curve]
Cc1cc(C)nc(NC(=O)c2ccc([N+](=O)[O-])o2)n1	–	inconclusive: 16.4 µM [inhibitor, partial curve]
Cc1ccc(S(=O)(=O)N2CCOC23CCN(C(=O)c2ccccc2Br)CC3)cc1	–	inconclusive: 16.4 µM [inhibitor, single point]
Cn1c(N2CCOCC2)nc2c1c(=O)n(Cc1ccc(Cl)cc1)c(=O)n2C	–	inconclusive: 13 µM [inhibitor, partial curve]
CN(c1ccccc1)S(=O)(=O)c1ccc(Cl)c(C(=O)NCCc2c[nH]c3ccccc23)c1	–	active: 14.6 µM
Nc1nnc(CC(=O)N/N=C/c2cccc(OCCOc3ccccc3)c2)s1	–	inconclusive: 23.1 µM [inhibitor, single point]
COc1ccc(-c2nc3cnc(N4CCNCC4)nc3n(CCC#N)c2=O)cc1	–	inconclusive: 29.1 µM [inhibitor, single point]
OC(CNCc1ccc2c(c1)OCO2)COc1ccccc1 (stereo not given)	inactive: -2.53%	–
COC(=O)c1c(C)[nH]c(C(=O)C(C)OC(=O)C2CC(=O)N(c3ccc(C)cc3)C2)c1C (stereo not given)	–	inconclusive: 20.6 µM [inhibitor, single point]
COc1ccc(OC)c(/C=C/C(=O)OCC(=O)Nc2cccc(C(C)=O)c2)c1	–	active: 16.4 µM
Cc1cc(C)n(-c2nc(Nc3ccccc3)nc(-n3nc(C)cc3C)n2)n1	inactive: 5.44%	–
Nc1nc(N)c(N=O)c(Nc2ccc(Cl)c(Cl)c2)n1	–	active: 4.11 µM
CCC(C)N(C)C(=O)c1cc2ccccc2c(-c2ccccc2Cl)n1 (stereo not given)	–	inactive and inconclusive: 29.1 µM [inhibitor, single point]
Oc1ccc(Br)c(CN2CCN(c3ncc(Cc4ccccc4)cn3)CC2)c1	–	inconclusive: 18.4 µM [inhibitor, single point]
O=C(OCc1cn([C@H]2CN(C(=O)C3CCCCC3)[C@@H](c3ccc(Cl)cc3)C[C@@H]2O)nn1)c1ccccc1	–	inconclusive: 29.1 µM [inhibitor, single point]
O=C(O)CC12C[C@H]3C[C@@H](C1)CC(n1ncc(N4CCN(c5ccccc5)CC4)c(Cl)c1=O)(C3)C2	inconclusive: -35.5% [inhibitor]	–

Source: PubChem BioAssay AID686979 (National Center for Advancing Translational Sciences (NCATS), 2013)
